This is an account of results in the supplement of paper PMC11417369.

± gives the standard deviation of the averaged measurements. The list shows a part of the results.

This experiment concerns PfAP2-LT AP2 domain (GST-tagged). The experiment can be described thus: gcPBM binding intensity (ln(normalized median fluorescence intensity)); higher = stronger DNA binding. The method in brief: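 Binding intensity is the highest Masliner-normalised natural-log median intensity over replicate spots in either probe orientation. To obtain it, GST-tagged P. falciparum DNA-binding domains made in E. coli were incubated for 1 h on an Agilent 4 × 180k array of primer-extended double-stranded 36-bp intergenic genomic probes plus negative controls. Detection used Alexa488 anti-GST antibody with scanning at 488 nm.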
“AAAAAAAACAGACACATACACACAAAAATGTTATAA [CACACA_site82]”: the “gcPBM binding intensity (ln)” value is 9.24 ± 0.52.

Turning to “ACCATTTTTATGTATAAACACACGTACCCGCACTAA [CACACA_site1604]”, the “gcPBM binding intensity (ln)” value came out at 9.04 ± 0.46.

On to “TGGAGATTTTTAAAGACACACAGGTAAGAATAATAA [CACACA_site1582]”, for which the “gcPBM binding intensity (ln)” value came to 8.77 ± 0.47.

Turning to “TTATACCTATATTTAACACACATTTGATAAAGTGCC [CACACA_site6732]”, the “gcPBM binding intensity (ln)” value was 8.85 ± 0.47.

With “AAAAAATTTGTTTATTGTACAGAAAGAATTATTATA [XGTACX_site6549]”, the “gcPBM binding intensity (ln)” value stood at 8.34 ± 0.47.

In the case of “TTGTAGGTAAATATGTGTACGCATTATTATTCTTAA [XGTACX_site216]”, the “gcPBM binding intensity (ln)” value was determined as 8.7 ± 0.45.

Consider “AATATAAACACAAACACACACATATAGATTTATATA [CACACA_site6263]”, for which the “gcPBM binding intensity (ln)” value amounted to 9.53 ± 0.35.

Regarding “CACAATGGTTTATATACACACTGTTGCAAATTCTTC [CACACA_site5659]”, the “gcPBM binding intensity (ln)” value was determined as 8.97 ± 0.35.

For “AATATATAAATTGACACACACATATATACCTATATA [CACACA_site4803]”, the “gcPBM binding intensity (ln)” value amounted to 9.35 ± 0.29.

On to “ACATATATATATATATATATATATATATATAGATAG [CACACA_negctrl_site783]”, for which the “gcPBM binding intensity (ln)” value stood at 9.49 ± 0.28.

On to “AAAACTAAATGTTATTCGCACACGGAATTTATTTAA [CACACA_site9221]”, for which the “gcPBM binding intensity (ln)” value is 8.94 ± 0.38.

“ACAAAAAAATATTTATGTACTTATTATATTTATAAT [XGTACX_site2059]”: the “gcPBM binding intensity (ln)” value came out at 8.49 ± 0.54.

Consider “CTTTTTACTTAATACACACACACACTAAAAAAAAAA [CACACA_site6574]”, for which the “gcPBM binding intensity (ln)” value came to 9.39 ± 0.16.

“ATAAAGAAATTACACACATGCAATGAAAAAAAAAAA [TGCATGCA_site406]”: the “gcPBM binding intensity (ln)” value turned out to be 9.12 ± 0.46.

In the case of “ATATATATTATATATGCATGCCAAATCTTTATAAAC [TGCATGCA_site1042]”, the “gcPBM binding intensity (ln)” value worked out at 8.98 ± 0.44.

As for “ATATGTATAAAAATCCGTACATAAGTGTGCGTATAT [XGTACX_site4376]”, the “gcPBM binding intensity (ln)” value stood at 8.98 ± 0.36.

“ATGTTTGAGCCTAAGGTGCATATAAAAATATATGTG [GTGCAC_site9690]”: the “gcPBM binding intensity (ln)” value is 8.74 ± 0.49.

For the sequence “ATAAATAATATGTAAACACACAAAAAATAAAAATGA [CACACA_site1178]”, the “gcPBM binding intensity (ln)” value was found to be 9.17 ± 0.51.

On to “TACTAAGAAGTATTTACACACCAACAAGGCGAAAAA [CACACA_site2944]”, for which the “gcPBM binding intensity (ln)” value amounted to 8.88 ± 0.44.

As to “ATATTTTGTTATGAAACACACACATATATATATATA [CACACA_site9216]”, the “gcPBM binding intensity (ln)” value was 9.305 ± 0.0071.

For the sequence “AAAAAAAAAAGAAATTGTACTTTTTGTTTAATAATT [XGTACX_site4681]”, the “gcPBM binding intensity (ln)” value turned out to be 8.26 ± 0.52.

With “TTGAGCCTACAAAAGGGTACACATTCAATTTATTTT [XGTACX_site6570]”, the “gcPBM binding intensity (ln)” value came out at 8.76 ± 0.48.

As to “ATTCCAGAAATATATTAACAAGGAAAATATAAAAAT [CACACA_negctrl_site343]”, the “gcPBM binding intensity (ln)” value stood at 8.65 ± 0.48.

Consider “ATAAAATGATGTATCTGTGTATGTTTATTTTGTTTT [XGTACX_negctrl_site367]”, for which the “gcPBM binding intensity (ln)” value is 8.93 ± 0.44.

As for “TATTTCAAACTGTTCTCACACACGAAATTAGAAATG [CACACA_site611]”, the “gcPBM binding intensity (ln)” value is 8.82 ± 0.34.

As for “ATTATATACAAATAAAGTACATAAACAAATTCAGAA [XGTACX_site1187]”, the “gcPBM binding intensity (ln)” value is 8.89 ± 0.47.

On to “TCAAAATATCCAAAAGAATAAAGAAAAAAAAAAAGA [CACACA_negctrl_site1377]”, for which the “gcPBM binding intensity (ln)” value worked out at 8.6 ± 0.39.

For the sequence “TTTTTATAAATAATAAGGCGTATGAAAATAAAATAA [TGCATGCA_negctrl_site421]”, the “gcPBM binding intensity (ln)” value was determined as 8.41 ± 0.4.

For “TCAAATTTAATCATAACACACATTCACATATGAATT [CACACA_site3199]”, the “gcPBM binding intensity (ln)” value stood at 8.81 ± 0.4.

On to “ATATAACATTGTTTTGCATGTAAATATTCAATTTTT [TGCATGCA_site758]”, for which the “gcPBM binding intensity (ln)” value was 8.62 ± 0.41.

As for “ATATAATGAAGTGAATGTACATATAAAATGTAAAAA [XGTACX_site8052]”, the “gcPBM binding intensity (ln)” value was 9.12 ± 0.59.

As to “AAAAAAAAAAAACACACACACAAATACAAATACATA [CACACA_site415]”, the “gcPBM binding intensity (ln)” value worked out at 9.99 ± 0.38.

For the sequence “TAGTATAATATATATTGTACGTTTTAATTGTTTATA [XGTACX_site2731]”, the “gcPBM binding intensity (ln)” value stood at 8.61 ± 0.45.

Regarding “GAAACGTTTTTTCAGTGTACATTTTACCGATTTGTA [XGTACX_site8249]”, the “gcPBM binding intensity (ln)” value is 8.88 ± 0.42.

Take “TAAAGCAACTGAAACACACAAATTTTTTTTTTTTTT [CACACA_site7499]”: the “gcPBM binding intensity (ln)” value was 8.77 ± 0.39.

As for “AAACTGAAAAAAATATGTACATATTTATATCTTATA [XGTACX_site3011]”, the “gcPBM binding intensity (ln)” value was 8.61 ± 0.46.

For the sequence “ATTGTATAAAAATGTACATGCAATAAATTTAGTTCT [TGCATGCA_site675]”, the “gcPBM binding intensity (ln)” value turned out to be 8.77 ± 0.42.

In the case of “TATATAAGAATATATACACACATATCTGTATTTATA [CACACA_site5231]”, the “gcPBM binding intensity (ln)” value worked out at 8.88 ± 0.39.

“AAAAAAACAGAAAACACACAAATTATCTTATAATTA [CACACA_site6282]”: the “gcPBM binding intensity (ln)” value is 8.75 ± 0.52.

In the case of “TTATTAACGGAACTCTGTACTTAAAAAATTTTAGAA [XGTACX_site8787]”, the “gcPBM binding intensity (ln)” value is 8.21 ± 0.52.

“ATTGTTTCATTAAAATGTACATAAATTGTGTATAAT [XGTACX_site5341]”: the “gcPBM binding intensity (ln)” value came to 8.65 ± 0.41.

For “GAGTTTATATTTTAAGCATGCATATGTTATTATTAT [TGCATGCA_site1049]”, the “gcPBM binding intensity (ln)” value was found to be 9.03 ± 0.41.

For “TATATCAAAAACGAGACATGCATGCCGTTCATTTTG [TGCATGCA_site211]”, the “gcPBM binding intensity (ln)” value amounted to 8.82 ± 0.38.

“TCTTTTTTGAAGCATTTTGTTTTTTAATAAGTAAAA [TGCATGCA_negctrl_site247]”: the “gcPBM binding intensity (ln)” value came out at 8.18 ± 0.35.

For the sequence “AATAAAATAAAAAAAAATAAAAAAAAAATAAAAAAT [XGTACX_negctrl_site245]”, the “gcPBM binding intensity (ln)” value was determined as 8.77 ± 0.67.

As for “TATATATATATTTAATGTACATGTTTATTTTATCAT [XGTACX_site499]”, the “gcPBM binding intensity (ln)” value stood at 8.9 ± 0.42.

On to TTTATAAAGGGAAAGGTGCAAAAGGTGAAAGTTTTA, for which the “gcPBM binding intensity (ln)” value came to 8.77 ± 0.59.

On to “TATTTTTCTTTTTAAGTGCATGGTTGTATAAAATTT [GTGCAC_site9480]”, for which the “gcPBM binding intensity (ln)” value was 8.59 ± 0.4.

Take “CACAGACACCCATACACACACATACCCATATATATA [CACACA_site5023]”: the “gcPBM binding intensity (ln)” value is 9.56 ± 0.34.

Consider “ATTTTATTTAAATACACACACATATATATATTATAT [CACACA_site4607]”, for which the “gcPBM binding intensity (ln)” value turned out to be 9.21 ± 0.31.

With “AATTATCAGGAATGATGTACTGAAATAAAAAAAAAA [XGTACX_site3280]”, the “gcPBM binding intensity (ln)” value turned out to be 8.62 ± 0.47.

As to “CTACATATGTATAATATGCACACGTCATTTTCCCCT [CACACA_site2107]”, the “gcPBM binding intensity (ln)” value came out at 9.24 ± 0.47.

For the sequence “ACACAAAAATGAAAAATGAAAAGGGTAATATATATA [CACACA_negctrl_site1490]”, the “gcPBM binding intensity (ln)” value was 8.97 ± 0.52.

As to “AAAAAAAAAAAAAAAGCACACATCATATTTTAATTC [CACACA_site9109]”, the “gcPBM binding intensity (ln)” value came to 8.87 ± 0.28.

On to “AGTATTATTTACTGCGCATGCTATTTATATATATTA [TGCATGCA_site876]”, for which the “gcPBM binding intensity (ln)” value amounted to 9.07 ± 0.38.

“ACCATATATTAAAAAGTGCATTAAATATATAAATAT [GTGCAC_site9443]”: the “gcPBM binding intensity (ln)” value came to 8.71 ± 0.52.
